Assay results taken from PubChem BioAssay (NCI).
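Cultured in 96-well plates, cells were exposed to test compound for 48 hours across five concentrations. GI50: concentration for 50% inhibition of growth. Definition used: TGI = concentration required for complete inhibition of growth.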

Test system: NCI-H322M lung
Experiment: NCI tumour cell line growth inhibition, 48 h

First: O=C(/C=C/c1ccccc1Cl)Nc1ncc(Cc2cc(Cl)ccc2Cl)s1
Second: Cc1[nH]c(C(=O)Nc2ccccc2OCc2cccc(C(=O)N3CCC[C@@H](N)C3)c2)c(Cl)c1Cl
The GI50 of the first is 1.5-fold higher: 2.78 µM for the first, 1.83 µM for the second.

`COC1CCN(Cc2ccc3c(NNC(=O)c4cnccn4)nc4cc(F)ccc4n23)C1` (stereo not drawn) and `Cn1cc(-c2cc(N)n3nc(-c4cn(C)c5ccc(F)cc45)cc3n2)c2cc(F)ccc21` are within 1.5-fold of each other in GI50: 1.38 µM for the first, 1.81 µM for the second.

Going from `O=C(/C=C/c1ccccc1Cl)Nc1ncc(Cc2cc(Cl)ccc2Cl)s1` to `Cc1[nH]c(C(=O)Nc2ccccc2OCc2cccc(C(=O)N3CCC[C@@H](N)C3)c2)c(Cl)c1Cl`, the TGI falls from over 100 µM to 3.45 µM.

First: COC1CCN(Cc2ccc3c(NNC(=O)c4cnccn4)nc4cc(F)ccc4n23)C1 (stereo not drawn)
Second: Cn1cc(-c2cc(N)n3nc(-c4cn(C)c5ccc(F)cc45)cc3n2)c2cc(F)ccc21
The TGI of the first is higher: over 100 µM for the first, 3.96 µM for the second.
